# Experimental data from the supplement of paper PMC8728848.
# Some of the results follow.
# Tests used:
# Experiment in all cases: glycan array binding signal (z-score within array); higher = stronger binding
# Conditions in all cases: glycan notation: IUPAC condensed, linker removed
# Gal6S(b1-4)GlcNAc6S = biological target: Gal6S(b1-4)GlcNAc6S
# Procedure, shortened: (§1)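 The binding signal is a Z-score computed within each array. Data were drawn from 3228 arrays in the Consortium for Functional Glycomics database, restricted to those with a known protein sequence. Scores were averaged over arrays of the same protein sequence at different concentrations or buffers, and over linkers, and negative values can be taken as non-binding.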
# GalNAc(a1-3)Gal = biological target: GalNAc(a1-3)Gal
# Procedure, shortened: as §1
# GalNAc(a1-3)GalNAc = biological target: GalNAc(a1-3)GalNAc
# Procedure, shortened: as §1
# [1] = biological target: GalNAc(a1-3)GalNAc(a1-3)Gal(a1-4)Gal(b1-4)GlcNAc
# Procedure, shortened: as §1
# [2] = biological target: GalNAc(a1-3)GalNAc(b1-3)Gal(a1-4)Gal(b1-4)Glc
# Procedure, shortened: as §1
# [3] = biological target: GalNAc(a1-3)GalNAc(b1-3)Gal(a1-4)Gal(b1-4)GlcNAc
# Procedure, shortened: as §1
# GalNAc(b1-3)Gal = biological target: GalNAc(b1-3)Gal
# Procedure, shortened: as §1
# [4] = biological target: GalNAc(b1-3)Gal(a1-4)Gal(b1-4)GlcNAc
# Procedure, shortened: as §1
# [5] = biological target: GalNAc(b1-3)Gal(a1-4)Gal(b1-4)GlcNAc(b1-3)Gal(b1-4)Glc
# Procedure, shortened: as §1
# [6] = biological target: GalNAc(b1-3)Gal(a1-6)Gal(b1-4)Glc
# Procedure, shortened: as §1
# GalNAc(b1-3)GalNAc = biological target: GalNAc(b1-3)GalNAc
# Procedure, shortened: as §1
# GalNAc(b1-3)GlcNAc = biological target: GalNAc(b1-3)GlcNAc
# Procedure, shortened: as §1
# GalNAc(b1-4)Gal(b1-4)Glc = biological target: GalNAc(b1-4)Gal(b1-4)Glc
# Procedure, shortened: as §1
# GalNAc(b1-4)GlcNAc = biological target: GalNAc(b1-4)GlcNAc
# Procedure, shortened: as §1
# [7] = biological target: GalNAc(b1-4)GlcNAc(b1-2)Man
# Procedure, shortened: as §1
# [8] = biological target: GalNAc(b1-4)GlcNAc(b1-2)Man(a1-3)[GalNAc(b1-4)GlcNAc(b1-2)Man(a1-6)]Man(b1-4)GlcNAc(b1-4)GlcNAc
# Procedure, shortened: as §1
# [9] = biological target: GalNAc(b1-4)GlcNAc(b1-3)GalNAc(b1-4)GlcNAc
# Procedure, shortened: as §1
# GalNAc(b1-4)GlcNAc6S = biological target: GalNAc(b1-4)GlcNAc6S
# Procedure, shortened: as §1
# GalNAc(b1-6)GalNAc = biological target: GalNAc(b1-6)GalNAc
# Procedure, shortened: as §1
# GalNAc3S(b1-4)GlcNAc = biological target: GalNAc3S(b1-4)GlcNAc
# Procedure, shortened: as §1
# GalNAc3S(b1-4)GlcNAc3S = biological target: GalNAc3S(b1-4)GlcNAc3S
# Procedure, shortened: as §1
# [10] = biological target: GalNAc3S(b1-4)[Fuc(a1-3)]GlcNAc
# Procedure, shortened: as §1
# GalNAc4S6S(b1-4)GlcNAc = biological target: GalNAc4S6S(b1-4)GlcNAc
# Procedure, shortened: as §1
# GalNAc6S(b1-4)GlcNAc = biological target: GalNAc6S(b1-4)GlcNAc
# Procedure, shortened: as §1
# Glc(a1-4)Glc = biological target: Glc(a1-4)Glc
# Procedure, shortened: as §1
# [11] = biological target: Glc(a1-4)Glc(a1-4)Glc(a1-4)Glc
# Procedure, shortened: as §1
# Glc(a1-6)Glc(a1-6)Glc = biological target: Glc(a1-6)Glc(a1-6)Glc
# Procedure, shortened: as §1
# [12] = biological target: Glc(a1-6)Glc(a1-6)Glc(a1-6)Glc
# Procedure, shortened: as §1
# Glc(b1-4)Glc = biological target: Glc(b1-4)Glc
# Procedure, shortened: as §1
# Glc(b1-6)Glc = biological target: Glc(b1-6)Glc
# Procedure, shortened: as §1
# GlcA(b1-3)Gal = biological target: GlcA(b1-3)Gal
# Procedure, shortened: as §1
# GlcA(b1-3)GlcNAc = biological target: GlcA(b1-3)GlcNAc
# Procedure, shortened: as §1
# GlcA(b1-6)Gal = biological target: GlcA(b1-6)Gal
# Procedure, shortened: as §1
# [13] = biological target: GlcA3S(b1-3)Gal(b1-4)GlcNAc(b1-2)Man
# Procedure, shortened: as §1
# [14] = biological target: GlcA3S(b1-3)Gal(b1-4)GlcNAc(b1-3)Gal(b1-4)Glc
# Procedure, shortened: as §1
# [15] = biological target: GlcNAc(a1-3)Gal(b1-4)GlcNAc
# Procedure, shortened: as §1
# [16] = biological target: GlcNAc(a1-4)Gal(b1-3)GlcNAc
# Procedure, shortened: as §1
# [17] = biological target: GlcNAc(a1-4)Gal(b1-4)GalNAc
# Procedure, shortened: as §1
binder,measurement,setting,value
"LSECtin (Homo sapiens), Q6UXB4 (protein) MDTTRYSKWGGSSEEVPGGPWGRWVHWSRRPLFLALAVLVTTVLWAVILSILLSKASTERAALLDGHDLLRTNASKQTAALGALKEEVGDCHSCCSGTQAQLQTTRAELGEAQAKLMEQESALRELRERVTQGLAEAGRGREDVRTELFRALEAVRLQNNSCEPCPTSWLSFEGSCYFFSVPKTTWAAAQDHCADASAHLVIVGGLDEQGFLTRNTRGRGYWLGLRAVRHLGKVQGYQWVDGVSLSFSHWNQGEPNDAWGRENCVMMLHTGLWNDAPCDSEKDGWICEKRHNC",glycan array binding signal (z-score),Gal6S(b1-4)GlcNAc6S,-0.109
same,glycan array binding signal (z-score),GalNAc(a1-3)Gal,-0.117
same,glycan array binding signal (z-score),GalNAc(a1-3)GalNAc,-0.153
same,glycan array binding signal (z-score),[1],-0.148
same,glycan array binding signal (z-score),[2],-0.135
same,glycan array binding signal (z-score),[3],-0.139
same,glycan array binding signal (z-score),GalNAc(b1-3)Gal,-0.182
same,glycan array binding signal (z-score),[4],-0.199
same,glycan array binding signal (z-score),[5],-0.138
same,glycan array binding signal (z-score),[6],-0.134
same,glycan array binding signal (z-score),GalNAc(b1-3)GalNAc,-0.221
same,glycan array binding signal (z-score),GalNAc(b1-3)GlcNAc,-0.127
same,glycan array binding signal (z-score),GalNAc(b1-4)Gal(b1-4)Glc,-0.125
same,glycan array binding signal (z-score),GalNAc(b1-4)GlcNAc,-0.205
same,glycan array binding signal (z-score),[7],0.068
same,glycan array binding signal (z-score),[8],-0.183
same,glycan array binding signal (z-score),[9],-0.14
same,glycan array binding signal (z-score),GalNAc(b1-4)GlcNAc6S,-0.114
same,glycan array binding signal (z-score),GalNAc(b1-6)GalNAc,-0.128
same,glycan array binding signal (z-score),GalNAc3S(b1-4)GlcNAc,-0.139
same,glycan array binding signal (z-score),GalNAc3S(b1-4)GlcNAc3S,-0.138
same,glycan array binding signal (z-score),[10],-0.122
same,glycan array binding signal (z-score),GalNAc4S6S(b1-4)GlcNAc,-0.141
same,glycan array binding signal (z-score),GalNAc6S(b1-4)GlcNAc,-0.138
same,glycan array binding signal (z-score),Glc(a1-4)Glc,-0.201
same,glycan array binding signal (z-score),[11],-0.125
same,glycan array binding signal (z-score),Glc(a1-6)Glc(a1-6)Glc,-0.232
same,glycan array binding signal (z-score),[12],-0.121
same,glycan array binding signal (z-score),Glc(b1-4)Glc,0.426
same,glycan array binding signal (z-score),Glc(b1-6)Glc,-0.115
same,glycan array binding signal (z-score),GlcA(b1-3)Gal,-0.223
same,glycan array binding signal (z-score),GlcA(b1-3)GlcNAc,-0.168
same,glycan array binding signal (z-score),GlcA(b1-6)Gal,-0.177
same,glycan array binding signal (z-score),[13],-0.133
same,glycan array binding signal (z-score),[14],-0.132
same,glycan array binding signal (z-score),[15],-0.127
same,glycan array binding signal (z-score),[16],-0.207
same,glycan array binding signal (z-score),[17],3.23
